Experimental data: the supplement of paper PMC3334620
The full ranking holds about 33,000 sequences; the median of “E-score (-0.5 to 0.5)” is about -0.016, and the highest 2% start at about 0.31. The list shows a part of the results.

target: Cst6 (UniProt P40535); assay: PBM E-score (8-mer binding enrichment) (E-score (-0.5 to 0.5)); higher = stronger / more preferred TF binding; most listed sequences are background and not binding sites; conditions: protein concentration: 200 nM; construct: GST-DNA-binding domain
Procedure, shortened: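 E-scores (a modified Wilcoxon-Mann-Whitney statistic) were assigned by the Universal PBM Analysis Suite to every ungapped eight-base word pooled with its reverse complement. The input came from universal all-10-mer Agilent arrays made double-stranded by primer extension and probed with GST-tagged yeast transcription factors at about 100-200 nM. Fluorescent anti-GST detected bound protein, and masliner normalised the scans.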

Sequence	PBM E-score
CGGAATTC	-0.00018
ACCGTGCC	0.0391
CTTATTAC	0.231
CCCGGGCG	-0.196
ACGTACTG	-0.0685
CACGTAGG	-0.0735
ACGTGCTC	-0.0826
CAGAAGCA	-0.0549
ACGGCTCA	0.197
ATACTAAC	0.0953
ACGTATCG	0.2
AGCGAGAA	-0.126
TCAACAGA	0.0545
CGCAGTGC	-0.133
ACGAGTAA	0.141
GCTCAGTA	0.138
ATACAGCG	0.0671
CTTATAAC	0.153
AAAGTTTG	0.156
CTACCCAC	-0.347
CTCGGCCA	-0.0895
ACAATTCA	0.0932
TCCTGTAA	0.107
ACACCTGC	0.0948
ATGTATTC	0.0111

Sequence	PBM E-score
ACCTACTG	-0.175
CTGCGAGA	-0.111
GATCACCC	-0.0947
ACTGCTGG	-0.324
CGTGCACC	-0.0078
CGTTACTC	-0.0496
CCGGTTAA	-0.171
CGCAGGTA	-0.129
AGCCGGAC	0.0913
GGGGAGAA	-0.161
CGCCCCCC	-0.347
ATTTATAC	0.294
AATTGGCC	-0.188
GCCTTCCA	-0.129
TATCATGA	0.186
GACCCGAC	-0.279
ACCTTATA	0.0371
CCAAACGG	-0.104
ACCTAGAA	0.0235
AGTTGGAT	0.0717
CGACATAC	0.193
GCAGGATA	-0.119
AGTTACAC	0.216
GACGGCAC	0.23
ATATAGAG	-0.0214

Sequence	PBM E-score
ACCTCCTA	-0.15
CAGAATCG	-0.00523
ATTCCCTC	-0.147
AAGCGGGT	-0.145
CCTTAAGA	-0.101
GAACAGAA	-0.00486
GTAAAGTA	0.255
CAAGTGTC	-0.138
AACCAGAG	0.0738
CCAATGTA	-0.222
GCACGACC	-0.226
GGTGTGAA	0.186
CGTTGCAG	0.0462
ACATTAGA	0.0463
CCTAATAG	0.016
GTGCTTTA	-0.00628
CACACATG	-0.0556
GAGAGCGA	-0.221
CCTTTGCC	-0.153
AATTCGTA	0.252
CCGGTTGC	-0.156
ACACCGTG	-0.0419
AATGGCGA	0.0462
TCGATAAA	0.273
CACTTTGG	-0.0142

Sequence	PBM E-score
CATCTAAG	0.0936
AGACCTAC	-0.227
AGGGGTTA	-0.27
GCCTTCAC	-0.0467
CAAATTGG	0.148
AAATGGGA	-0.182
GCGAAAAA	0.197
AGACGGCC	-0.214
CCTAGCTC	-0.26
TAATCGAA	0.162
GGTTTTAA	0.0844
AGACCCTG	-0.246
AACATGCA	0.0353
CCACTGCA	-0.0639
CAAGATGG	-0.225
GGCTTGAA	0.0432
CCAACCCG	-0.122
GCGAGTCC	-0.272
CTGTCGCC	-0.137
ATCGGGCC	-0.234
GAGCTCTA	-0.186
CGCCTGGA	-0.179
AATCAACA	0.262
CTTGAGCC	-0.137
ACGTAAGA	0.448

Sequence	PBM E-score
TAATTCAA	0.217
GACTCGAA	-0.0659
GATGGCGC	-0.012
CGTGGATC	-0.0825
ATAGGCAT	-0.0819
CTGTCAAA	0.119
GTCACACA	0.29
ACTACTAT	0.159
ACCATGGC	0.0177
AAAAGATA	0.224
CCATCCCG	-0.176
CTTATCCA	0.152
AACTCCTG	-0.202
AACCGATA	0.0122
TATCTCAA	0.257
GATTTGCA	0.0914
GGCAATAC	0.0548
CGAGACCG	-0.184
GCCTTCGA	-0.182
AGTGGAAA	0.0231
AAGCAGAC	-0.148
CTTCATAC	0.106
ATCAACAC	0.163
ACATCTAG	-0.0177
TCTAGACA	0.0583

Sequence	PBM E-score
CCGTGCGA	0.228
CTGAAAGA	0.169
GTAGCGTA	-0.101
AGTGTGCA	-0.0156
CAAGACGA	-0.119
ACGTTGAT	0.243
CTGGCGGC	-0.16
CATAGGTA	0.0562
ATTTGAGC	-0.0139
ACAGCCCA	-0.0152
CGATGCAA	-0.0639
CCGACCGG	-0.305
ATGACATA	0.45
ATTCGATG	0.105
ATCGCTCA	-0.121
CTGGTTTC	0.00333
ACCGAACT	-0.0144
AGCACAAC	0.0921
AAGGCTGA	-0.0825
AAATTGTG	0.021
AAGAACAC	0.167
CAGTGCAC	-0.228
ACCTGACC	0.0327
AAAAACAC	0.112
GACCCCAC	-0.0913

Sequence	PBM E-score
ATACTTTG	0.125
GGTCGTGA	-0.0244
GAGAACCC	-0.32
TCAATGGA	0.0863
CTCTTATA	0.163
AGATGCAG	-0.0156
AATTATCT	0.161
TCCCCAAA	0.119
CGATTGTC	0.104
CAAAAGCC	-0.0487
CTGATCGA	-0.0169
AATACAGC	0.0457
ACTTCATC	0.101
GAAGGTAC	-0.0696
AGGTCGTG	-0.0748
CCGCGGCG	0.156
CCAGTGAA	-0.0258
GACGCCTA	-0.177
CAAGACCC	-0.197
AAGACTCG	-0.0622
CAGCGCAG	-0.102
CACGCTGA	0.133
